Test results as given in the supplement of paper PMC4967469.
Lines with a small IC50 respond at low doses; where the fit passes the top or lowest dose, that dose stands as a limit. The AUC spans the tested range (256-fold, ending at the top dose) of the same fit; the more sensitive the line, the further below 1. For part of these data: A top dose marked as inferred was derived from the fitted curves, not read from the paper.

What was measured:
Experiment in all cases: Viability of human cancer cell lines after 72 h of drug (GDSC screen)
Etoposide = compound: COc1cc([C@@H]2c3cc4c(cc3[C@@H](O[C@@H]3O[C@@H]5CO[C@@H](C)O[C@H]5[C@H](O)[C@H]3O)[C@H]3COC(=O)[C@H]23)OCO4)cc(OC)c1O [Etoposide]; conditions: top dose 16 µM
Protocol: (§1)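 Human cancer cell lines in 384-well plates, medium with 10% serum, drug for 72 h over a 256-fold dose range (nine 2-fold or five 4-fold steps up to the top dose). Adherent lines were fixed and stained with the nucleic acid dye Syto60, suspension lines read with resazurin; signal relative to control wells, capped at 0 and 100%. One two-parameter sigmoid per drug and line, fitted in a mixed model over all curves with the slope shared within a line.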

XAV 939 = compound: Oc1nc(-c2ccc(C(F)(F)F)cc2)nc2c1CSCC2 [XAV 939]; conditions: top dose 5 µM; top dose inferred
Protocol: as §1

GSK-650394 = compound: O=C(O)c1ccc(-c2c[nH]c3ncc(-c4ccccc4)cc23)cc1C1CCCC1 [GSK-650394]; conditions: top dose 16 µM; top dose inferred
Protocol: as §1

Bexarotene = compound: C=C(c1ccc(C(=O)O)cc1)c1cc2c(cc1C)C(C)(C)CCC2(C)C [Bexarotene]; conditions: top dose 8 µM
Protocol: as §1

NPK76-II-72-1 = compound: COc1cc(C(=O)NC2CCN(C)CC2)ccc1Nc1ncc2c(n1)N(C1CCCC1)C(C)CC(=O)N2C [NPK76-II-72-1]; conditions: top dose 10.24 µM; top dose inferred
Protocol: as §1

YK 4-279 = compound: COc1ccc(C(=O)CC2(O)C(=O)Nc3c(Cl)ccc(Cl)c32)cc1 [YK 4-279]; conditions: top dose 10 µM
Protocol: as §1

AZD7762 = compound: NC(=O)Nc1cc(-c2cccc(F)c2)sc1C(=O)N[C@H]1CCCNC1 [AZD7762]; conditions: top dose 2 µM
Protocol: as §1

BMS-345541 = compound: Cc1ccc2nc(NCCN)c3ncc(C)n3c2c1 [BMS-345541]; conditions: top dose 16 µM
Protocol: as §1

| Cell Line | AUC (Etoposide) | IC50 (Etoposide) | AUC (XAV 939) | IC50 (XAV 939) | AUC (GSK-650394) | IC50 (GSK-650394) | AUC (Bexarotene) | IC50 (Bexarotene) | AUC (NPK76-II-72-1) | IC50 (NPK76-II-72-1) | AUC (YK 4-279) | IC50 (YK 4-279) | AUC (AZD7762) | IC50 (AZD7762) | AUC (BMS-345541) | IC50 (BMS-345541) |
| --- | --- | --- | --- | --- | --- | --- | --- | --- | --- | --- | --- | --- | --- | --- | --- | --- |
| HUTU-80 (digestive system, adherent) | 0.222 | 0.186 µM | 0.991 | > 5 µM | 0.457 | 0.778 µM | 0.843 | 4.29 µM | 0.884 | 7.79 µM | 0.557 | 0.867 µM | 0.622 | 0.255 µM | 0.867 | 10.5 µM |
| Hep 3B2_1-7 (liver, adherent) | 0.451 | 0.734 µM | 0.957 | > 5 µM | 0.74 | 4.84 µM | 0.96 | > 8 µM | 0.912 | > 10.2 µM | 0.829 | 6.19 µM | 0.686 | 0.414 µM | 0.985 | > 16 µM |
| Hs633T (fibrosarcoma, adherent) | 0.203 | 0.166 µM | 0.904 | 4.49 µM | 0.64 | 2.26 µM | 0.913 | 7.94 µM | 0.964 | > 10.2 µM | 0.698 | 1.99 µM | 0.588 | 0.208 µM | 0.904 | 14.4 µM |
| Hs683 (glioma, adherent) | 0.498 | 0.99 µM | 0.987 | > 5 µM | 0.781 | 6.73 µM | 0.971 | > 8 µM | 0.904 | > 10.2 µM | 0.65 | 1.63 µM | 0.767 | 0.75 µM | 0.921 | > 16 µM |
| Hs766T (pancreas, adherent) | 0.975 | > 16 µM | 0.977 | > 5 µM | 0.974 | > 16 µM | 0.959 | > 8 µM | 0.984 | > 10.2 µM | 0.876 | > 10 µM | 0.679 | 0.467 µM | 0.976 | > 16 µM |
| Hs939-T (melanoma, adherent) | 0.77 | 6.67 µM | 0.982 | > 5 µM | 0.978 | > 16 µM | 0.922 | > 8 µM | 0.982 | > 10.2 µM | 0.799 | 5.33 µM | 0.71 | 0.521 µM | 0.983 | > 16 µM |
| Hs-578-T (breast, adherent) | 0.987 | > 16 µM | 0.977 | > 5 µM | 0.96 | > 16 µM | 0.959 | > 8 µM | 0.987 | > 10.2 µM | 0.725 | 2.86 µM | 0.709 | 0.506 µM | 0.984 | > 16 µM |
| HuCCT1 (biliary tract, adherent) | 0.602 | 1.97 µM | 0.901 | > 5 µM | 0.873 | > 16 µM | 0.891 | > 8 µM | 0.873 | > 10.2 µM | 0.686 | 2.22 µM | 0.754 | 0.746 µM | 0.867 | > 16 µM |
| HuO9 (osteosarcoma, adherent) | 0.507 | 1.04 µM | 0.975 | > 5 µM | 0.984 | > 16 µM | 0.98 | > 8 µM | 0.979 | > 10.2 µM | 0.753 | 3.66 µM | 0.613 | 0.265 µM | 0.849 | 14.1 µM |
| HuO-3N1 (osteosarcoma, adherent) | 0.797 | 10.5 µM | 0.952 | > 5 µM | 0.981 | > 16 µM | 0.887 | > 8 µM | 0.965 | > 10.2 µM | 0.855 | > 10 µM | 0.668 | 0.429 µM | 0.911 | > 16 µM |
| IA-LM (large cell lung carcinoma, adherent) | 0.682 | – | 0.954 | > 5 µM | 0.679 | 3.37 µM | 0.816 | 5.15 µM | 0.937 | > 10.2 µM | 0.92 | > 10 µM | 0.858 | 1.97 µM | 0.905 | > 16 µM |
| IHH-4 (thyroid, semi-adherent) | 0.185 | 0.15 µM | 0.986 | > 5 µM | 0.729 | 3.8 µM | 0.93 | > 8 µM | 0.991 | > 10.2 µM | 0.649 | 1.47 µM | 0.605 | 0.228 µM | 0.905 | 13.9 µM |
| IMR-5 (neuroblastoma, adherent) | 0.314 | 0.333 µM | 0.954 | > 5 µM | 0.9 | 14.7 µM | 0.991 | > 8 µM | 0.798 | 4.01 µM | 0.669 | 1.69 µM | 0.923 | > 2 µM | 0.808 | 6.71 µM |
| IST-SL1 (small cell lung carcinoma, semi-adherent) | 0.831 | 10.5 µM | 0.95 | > 5 µM | 0.832 | 10.7 µM | 0.972 | > 8 µM | 0.538 | 0.815 µM | 0.774 | 4.04 µM | 0.762 | 0.733 µM | 0.835 | 10.9 µM |
| JEG-3 (urogenital system, adherent) | 0.586 | 1.67 µM | 0.966 | > 5 µM | 0.961 | > 16 µM | 0.921 | > 8 µM | 0.991 | > 10.2 µM | 0.727 | 2.56 µM | 0.808 | 0.912 µM | 0.967 | > 16 µM |
| JHH-1 (liver, adherent) | 0.748 | 5.53 µM | 0.971 | > 5 µM | 0.766 | 6.4 µM | 0.776 | 3.47 µM | 0.964 | > 10.2 µM | 0.705 | 2.5 µM | 0.755 | 0.734 µM | 0.887 | > 16 µM |
| JHH-2 (liver, adherent) | 0.928 | > 16 µM | 0.952 | > 5 µM | 0.981 | > 16 µM | 0.985 | > 8 µM | 0.957 | > 10.2 µM | 0.796 | 5.08 µM | 0.766 | 0.794 µM | 0.893 | > 16 µM |
| JHH-4 (liver, adherent) | 0.733 | 4.59 µM | 0.928 | > 5 µM | 0.872 | 15.2 µM | 0.894 | > 8 µM | 0.872 | 9.7 µM | 0.66 | 1.74 µM | 0.98 | > 2 µM | 0.983 | > 16 µM |
| JHH-6 (liver, adherent) | 0.774 | 6.36 µM | 0.976 | > 5 µM | 0.792 | 7.4 µM | 0.941 | > 8 µM | 0.943 | > 10.2 µM | 0.733 | 2.93 µM | 0.931 | > 2 µM | 0.912 | > 16 µM |
| JHH-7 (liver, adherent) | 0.301 | 0.288 µM | 0.988 | > 5 µM | 0.583 | 1.66 µM | 0.909 | > 8 µM | 0.9 | > 10.2 µM | 0.633 | 1.41 µM | 0.927 | > 2 µM | 0.915 | > 16 µM |
| JHU-022 (head and neck, adherent) | 0.871 | > 16 µM | 0.965 | > 5 µM | 0.972 | > 16 µM | 0.98 | > 8 µM | 0.981 | > 10.2 µM | 0.806 | 6.76 µM | 0.496 | 0.122 µM | 0.952 | > 16 µM |
| JIMT-1 (breast, adherent) | 0.739 | 5.12 µM | 0.917 | > 5 µM | 0.913 | > 16 µM | 0.943 | > 8 µM | 0.982 | > 10.2 µM | 0.615 | 1.33 µM | 0.674 | 0.398 µM | 0.942 | > 16 µM |
| JJN-3 (haematopoietic neoplasm, suspension) | 0.928 | > 16 µM | 0.987 | > 5 µM | 0.935 | > 16 µM | 0.92 | > 8 µM | 0.735 | 2.58 µM | 0.723 | 2.33 µM | 0.729 | 0.483 µM | 0.83 | 7.64 µM |
| JM1 (B-cell lymphoma, suspension) | 0.229 | 0.19 µM | 0.974 | > 5 µM | 0.884 | 13.1 µM | 0.975 | > 8 µM | 0.73 | 2.58 µM | 0.822 | 4.77 µM | 0.553 | 0.171 µM | 0.778 | 5.56 µM |
| JURL-MK1 (chronic myeloid leukaemia, suspension) | 0.714 | 4.01 µM | 0.953 | > 5 µM | 0.835 | 10.4 µM | 0.931 | > 8 µM | 0.618 | 1.35 µM | 0.815 | 5.49 µM | 0.339 | 0.0446 µM | 0.667 | 2.9 µM |
| JVM-2 (lymphoid neoplasm, suspension) | 0.952 | > 16 µM | 0.962 | > 5 µM | 0.977 | > 16 µM | 0.979 | > 8 µM | 0.969 | > 10.2 µM | 0.663 | 1.98 µM | 0.664 | 0.399 µM | 0.903 | > 16 µM |
| JVM-3 (lymphoid neoplasm, suspension) | 0.985 | > 16 µM | 0.946 | > 5 µM | 0.984 | > 16 µM | 0.985 | > 8 µM | 0.869 | 9.7 µM | 0.518 | 0.701 µM | 0.467 | 0.102 µM | 0.912 | > 16 µM |
| JiyoyeP-2003 (Burkitt lymphoma, suspension) | 0.661 | 2.63 µM | 0.978 | > 5 µM | 0.949 | > 16 µM | 0.922 | > 8 µM | 0.889 | 9.22 µM | 0.817 | 4.76 µM | 0.559 | 0.177 µM | 0.868 | 11.7 µM |
